According to the supplement of paper PMC12217912:
Some of the results follow. The full chains were built here from the parent and the listed change. Inactive controls read about 0.05.

B1: TEV protease; numbered along this chain (parent)
chain: MGESLFKGPRDYNPISSSICHLTNESDGHTTSLYGIGFGPFIITNKHLFRRNNGTLVVQSLHGVFKVKDTTTLQQHLVDGRDMIIIRMPKDFPPFPQKLKFREPQREERICLVTTNFQTKSMSSMVSDTSCTFPSGDGIFWKHWIQTKDGQCGSPLVSTRDGFIVGIHSASNFTNTNNYFTSVPKNFMELLTNQEAQQWVSGWRLNADSVLWGGHKVFMVKPEEPFQPVKEATQL

Variants of: B1
Assay: raw area under fraction-flipped curve 0-4 h after induction (AUC4h, not background-subtracted), DNA-recorder readout of cleavage of the substrate (dimensionless); higher = more cleavage of the substrate by the protease variant
Conditions: temperature: 34 °C; time window: 0-4 h after rhamnose induction
Description: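 In vivo DNA recorder in E. coli TOP10(DE3) ΔrhaA at 34 °C. Each TEVp single-site mutant (parent TEVp 0) is paired with a single-site variant of the 7-mer TEVs (canonical ENLYFQ|S). The substrate sits between flexible linkers in a Bxb1-sfGFP-TEVs-SsrA fusion, so cleavage stabilises Bxb1 and speeds flipping of a recombination array, read by NGS. The value is the raw area under the fraction-flipped curve over 0-4 h after rhamnose induction (AUC4h), with ≥20 reads per time point. It is not background-subtracted; inactive controls average about 0.047.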
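Note: Bxb1 expression induced with 0.2% (w/v) L-rhamnose at OD600 near 0.5, cultures sampled hourly, flipped fraction per protease–substrate barcode pair counted by paired-end Illumina sequencing.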

| Variant | area with substrate ENAYFQS | area with substrate ENCYFQS | area with substrate ENDYFQS | area with substrate ENEYFQS | area with substrate ENFYFQS | area with substrate ENGYFQS | area with substrate ENHYFQS | area with substrate ENIYFQS | area with substrate ENKYFQS | area with substrate ENNYFQS | area with substrate ENPYFQS | area with substrate ENSYFQS | area with substrate ENTYFQS | area with substrate ENVYFQS | area with substrate ENYYFQS | area with substrate ENMYFQS | area with substrate ENQYFQS | area with substrate ENRYFQS | area with substrate ENWYFQS |
| --- | --- | --- | --- | --- | --- | --- | --- | --- | --- | --- | --- | --- | --- | --- | --- | --- | --- | --- | --- |
| A196F | 0.0562 | 0.0777 | 0.0685 | 0.058 | 0.0343 | 0.0656 | 0.0468 | 0.116 | 0.0827 | 0.0511 | 0.0403 | 0.0674 | 0.0577 | 0.0716 | 0.0558 | – | – | – | – |
| A196D | 0.0616 | 0.091 | 0.0672 | 0.0721 | 0.0618 | – | 0.0614 | – | – | 0.0628 | 0.0743 | 0.0448 | 0.059 | – | 0.0625 | 0.0942 | 0.0549 | 0.0423 | – |
| A196W | 0.0615 | – | 0.0566 | 0.0698 | – | 0.0963 | – | 0.0991 | 0.0417 | 0.0591 | – | – | – | – | – | – | 0.0675 | 0.0503 | 0.0642 |
| Q198T | 0.056 | – | 0.0573 | 0.0383 | 0.0576 | – | – | 0.107 | 0.0521 | – | – | 0.0584 | – | 0.0719 | 0.0589 | 0.0614 | 0.0309 | 0.0588 | – |
| Q198A | 0.0587 | 0.0687 | – | – | 0.0498 | 0.0779 | – | – | – | 0.07 | 0.0381 | 0.0607 | 0.0533 | 0.0875 | 0.0591 | – | – | 0.0591 | – |
| Q198N | 0.0528 | 0.057 | 0.0651 | 0.0513 | 0.0532 | 0.0653 | – | – | – | 0.067 | 0.0596 | 0.0581 | – | – | – | – | 0.0408 | 0.0454 | – |
| Q198L | 0.0467 | 0.0744 | 0.0715 | – | 0.0502 | 0.0623 | 0.0614 | 0.0899 | 0.0628 | 0.0676 | 0.0503 | – | – | 0.0662 | – | 0.0736 | 0.058 | 0.0607 | 0.0539 |
| K185C | 0.0631 | 0.0582 | 0.0603 | 0.0615 | – | 0.0683 | 0.0625 | 0.105 | – | 0.0661 | 0.0596 | 0.0356 | 0.0789 | 0.0931 | 0.0436 | – | 0.0752 | 0.0509 | 0.0364 |
| K185S | 0.0561 | – | 0.0717 | – | 0.0288 | 0.0649 | 0.0519 | – | – | – | – | – | 0.0536 | 0.0806 | – | 0.0822 | – | – | – |
| K185M | 0.0535 | 0.0639 | 0.0598 | 0.0586 | 0.0652 | – | 0.0619 | 0.122 | 0.0594 | 0.0498 | 0.0434 | 0.106 | – | 0.0874 | 0.0508 | – | 0.0603 | 0.0479 | 0.0477 |
| S171C | 0.0708 | 0.0538 | 0.0651 | 0.0572 | 0.0582 | – | 0.061 | – | – | 0.0742 | – | 0.0592 | 0.0659 | 0.0564 | – | 0.0765 | 0.061 | 0.0661 | 0.0572 |
| S171H | 0.0792 | 0.0736 | 0.0621 | 0.0629 | 0.0684 | – | 0.0671 | 0.0631 | – | 0.0647 | 0.0134 | 0.0663 | 0.0714 | 0.0418 | – | 0.0733 | 0.0638 | 0.0551 | – |
| E195N | 0.041 | 0.0621 | 0.0658 | – | 0.06 | 0.063 | 0.0574 | 0.118 | – | 0.067 | 0.0748 | – | 0.0636 | 0.0587 | – | – | 0.0617 | – | 0.0622 |
